Assay results published in paper PMC12820563.
The list shows a part of the results. The list includes weakly bound sequences.

biological target: T1, MBP-FoxP3dN (UniProt Q99JB6); experiment: PD-seq (MBP pull-down with sequencing); conditions: 20 mM Tris-HCl pH 7.5, 100 mM NaCl, 1.5 mM MgCl2, 0.4 uM protein, 0.1 uM dsDNA library, 30 min, room temperature, amylose pull-down; high values mean tight binding; double strand, one strand shown
T1 sequence: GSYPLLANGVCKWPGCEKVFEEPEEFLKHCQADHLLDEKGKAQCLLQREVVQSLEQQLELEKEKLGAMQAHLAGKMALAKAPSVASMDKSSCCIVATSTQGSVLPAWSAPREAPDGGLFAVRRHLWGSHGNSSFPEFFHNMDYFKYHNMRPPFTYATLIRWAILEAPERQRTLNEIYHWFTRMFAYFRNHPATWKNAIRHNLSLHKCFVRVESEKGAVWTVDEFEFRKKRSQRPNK

Sequence	binding signal (RPM ratio (pull-down/input))
GATGATTGTTCTCCCAGCTGATGAATTGACTGCCTCGAGTAAACAAATTTTCCTAATCTTTCTGTTCAAGCGCCATCTAC	0.474
GATGATTGTTCTCCCAGCTGATGAATTCCTGCACTCGAGTAAACAAATTTTCCTAATCTTTCTGTTCAAGCGCCATCTAC	0.472
GATGATTGTTCTCCCAGCTGATGAATTCTCCTCATCGAGTAAACAAATTTTCCTAATCTTTCTGTTCAAGCGCCATCTAC	0.261
GATGATTGTTCTCCCAGCTGATGAATTCCAACTTTCGAGTAAACAAATTTTCCTAATCTTTCTGTTCAAGCGCCATCTAC	0.395
GATGATTGTTCTCCCAGCTGATGAATTGAGCCACTCGAGTAAACAAATTTTCCTAATCTTTCTGTTCAAGCGCCATCTAC	4.76
GATGATTGTTCTCCCAGCTGATGAATTCGAGATCTCGAGTAAACAAATTTTCCTAATCTTTCTGTTCAAGCGCCATCTAC	0.276
GATGATTGTTCTCCCAGCTGATGAATTTTGGCGCTCGAGTAAACAAATTTTCCTAATCTTTCTGTTCAAGCGCCATCTAC	0.474
GATGATTGTTCTCCCAGCTGATGAATTTCGATTATCGAGTAAACAAATTTTCCTAATCTTTCTGTTCAAGCGCCATCTAC	2.02
GATGATTGTTCTCCCAGCTGATGAATTTTACCCGTCGAGTAAACAAATTTTCCTAATCTTTCTGTTCAAGCGCCATCTAC	0.21
GATGATTGTTCTCCCAGCTGATGAATTGCCACTGTCGAGTAAACAAATTTTCCTAATCTTTCTGTTCAAGCGCCATCTAC	1.22
GATGATTGTTCTCCCAGCTGATGAATTTACGCCTTCGAGTAAACAAATTTTCCTAATCTTTCTGTTCAAGCGCCATCTAC	2.92
GATGATTGTTCTCCCAGCTGATGAATTATACAAGTCGAGTAAACAAATTTTCCTAATCTTTCTGTTCAAGCGCCATCTAC	0.571
GATGATTGTTCTCCCAGCTGATGAATTCAGAGGATCGAGTAAACAAATTTTCCTAATCTTTCTGTTCAAGCGCCATCTAC	0.205
GATGATTGTTCTCCCAGCTGATGAATTTCGACTCTCGAGTAAACAAATTTTCCTAATCTTTCTGTTCAAGCGCCATCTAC	1.85
GATGATTGTTCTCCCAGCTGATGAATTGCCTCAATCGAGTAAACAAATTTTCCTAATCTTTCTGTTCAAGCGCCATCTAC	0.734
GATGATTGTTCTCCCAGCTGATGAATTGTGGGGGTCGAGTAAACAAATTTTCCTAATCTTTCTGTTCAAGCGCCATCTAC	0.783
GATGATTGTTCTCCCAGCTGATGAATTGAGGGCTTCGAGTAAACAAATTTTCCTAATCTTTCTGTTCAAGCGCCATCTAC	0.368
GATGATTGTTCTCCCAGCTGATGAATTCGACTGATCGAGTAAACAAATTTTCCTAATCTTTCTGTTCAAGCGCCATCTAC	0.327
GATGATTGTTCTCCCAGCTGATGAATTGAGCAGGTCGAGTAAACAAATTTTCCTAATCTTTCTGTTCAAGCGCCATCTAC	0.434
GATGATTGTTCTCCCAGCTGATGAATTCGGACGTTCGAGTAAACAAATTTTCCTAATCTTTCTGTTCAAGCGCCATCTAC	0.358
GATGATTGTTCTCCCAGCTGATGAATTTGCGTTGTCGAGTAAACAAATTTTCCTAATCTTTCTGTTCAAGCGCCATCTAC	3.64

Sequence	binding signal (RPM ratio (pull-down/input))
GATGATTGTTCTCCCAGCTGATGAATTTGTTTCTTCGAGTAAACAAATTTTCCTAATCTTTCTGTTCAAGCGCCATCTAC	6.78
GATGATTGTTCTCCCAGCTGATGAATTTGCACAGTCGAGTAAACAAATTTTCCTAATCTTTCTGTTCAAGCGCCATCTAC	0.457
GATGATTGTTCTCCCAGCTGATGAATTTCCTTCATCGAGTAAACAAATTTTCCTAATCTTTCTGTTCAAGCGCCATCTAC	0.372
GATGATTGTTCTCCCAGCTGATGAATTAGATGTCTCGAGTAAACAAATTTTCCTAATCTTTCTGTTCAAGCGCCATCTAC	2.35
GATGATTGTTCTCCCAGCTGATGAATTACCGATTTCGAGTAAACAAATTTTCCTAATCTTTCTGTTCAAGCGCCATCTAC	0.455
GATGATTGTTCTCCCAGCTGATGAATTCCAAAGATCGAGTAAACAAATTTTCCTAATCTTTCTGTTCAAGCGCCATCTAC	0.179
GATGATTGTTCTCCCAGCTGATGAATTAAGCAACTCGAGTAAACAAATTTTCCTAATCTTTCTGTTCAAGCGCCATCTAC	5.03
GATGATTGTTCTCCCAGCTGATGAATTTTCGGACTCGAGTAAACAAATTTTCCTAATCTTTCTGTTCAAGCGCCATCTAC	0.241
GATGATTGTTCTCCCAGCTGATGAATTCCCGCTCTCGAGTAAACAAATTTTCCTAATCTTTCTGTTCAAGCGCCATCTAC	0.343
GATGATTGTTCTCCCAGCTGATGAATTCCCGAGATCGAGTAAACAAATTTTCCTAATCTTTCTGTTCAAGCGCCATCTAC	0.222
GATGATTGTTCTCCCAGCTGATGAATTCGCGGCTTCGAGTAAACAAATTTTCCTAATCTTTCTGTTCAAGCGCCATCTAC	0.373
GATGATTGTTCTCCCAGCTGATGAATTGGCTTATTCGAGTAAACAAATTTTCCTAATCTTTCTGTTCAAGCGCCATCTAC	2.11
GATGATTGTTCTCCCAGCTGATGAATTAGCAACATCGAGTAAACAAATTTTCCTAATCTTTCTGTTCAAGCGCCATCTAC	2.78
GATGATTGTTCTCCCAGCTGATGAATTTTTCAGCTCGAGTAAACAAATTTTCCTAATCTTTCTGTTCAAGCGCCATCTAC	0.214
GATGATTGTTCTCCCAGCTGATGAATTTGTATAATCGAGTAAACAAATTTTCCTAATCTTTCTGTTCAAGCGCCATCTAC	4.58
GATGATTGTTCTCCCAGCTGATGAATTTCGCCGTTCGAGTAAACAAATTTTCCTAATCTTTCTGTTCAAGCGCCATCTAC	1.36
GATGATTGTTCTCCCAGCTGATGAATTTCTGATATCGAGTAAACAAATTTTCCTAATCTTTCTGTTCAAGCGCCATCTAC	0.373
GATGATTGTTCTCCCAGCTGATGAATTTCAGGCATCGAGTAAACAAATTTTCCTAATCTTTCTGTTCAAGCGCCATCTAC	0.61
GATGATTGTTCTCCCAGCTGATGAATTTAGTGAATCGAGTAAACAAATTTTCCTAATCTTTCTGTTCAAGCGCCATCTAC	0.42
GATGATTGTTCTCCCAGCTGATGAATTCGGCTTATCGAGTAAACAAATTTTCCTAATCTTTCTGTTCAAGCGCCATCTAC	1.47
GATGATTGTTCTCCCAGCTGATGAATTGTGGTGTTCGAGTAAACAAATTTTCCTAATCTTTCTGTTCAAGCGCCATCTAC	2.27

Sequence	binding signal (RPM ratio (pull-down/input))
GATGATTGTTCTCCCAGCTGATGAATTGATCCAATCGAGTAAACAAATTTTCCTAATCTTTCTGTTCAAGCGCCATCTAC	0.367
GATGATTGTTCTCCCAGCTGATGAATTGGGTCGGTCGAGTAAACAAATTTTCCTAATCTTTCTGTTCAAGCGCCATCTAC	0.216
GATGATTGTTCTCCCAGCTGATGAATTCGTGATTTCGAGTAAACAAATTTTCCTAATCTTTCTGTTCAAGCGCCATCTAC	1.08
GATGATTGTTCTCCCAGCTGATGAATTACGACGCTCGAGTAAACAAATTTTCCTAATCTTTCTGTTCAAGCGCCATCTAC	0.522
GATGATTGTTCTCCCAGCTGATGAATTGATTTCTTCGAGTAAACAAATTTTCCTAATCTTTCTGTTCAAGCGCCATCTAC	0.807
GATGATTGTTCTCCCAGCTGATGAATTGGGGCCGTCGAGTAAACAAATTTTCCTAATCTTTCTGTTCAAGCGCCATCTAC	0.369
GATGATTGTTCTCCCAGCTGATGAATTTGTTATCTCGAGTAAACAAATTTTCCTAATCTTTCTGTTCAAGCGCCATCTAC	7.03
GATGATTGTTCTCCCAGCTGATGAATTGTCGATATCGAGTAAACAAATTTTCCTAATCTTTCTGTTCAAGCGCCATCTAC	0.619
GATGATTGTTCTCCCAGCTGATGAATTCCAGAAGTCGAGTAAACAAATTTTCCTAATCTTTCTGTTCAAGCGCCATCTAC	0.172
GATGATTGTTCTCCCAGCTGATGAATTGTGGCTTTCGAGTAAACAAATTTTCCTAATCTTTCTGTTCAAGCGCCATCTAC	1.94
GATGATTGTTCTCCCAGCTGATGAATTTCGCGATTCGAGTAAACAAATTTTCCTAATCTTTCTGTTCAAGCGCCATCTAC	1.23
GATGATTGTTCTCCCAGCTGATGAATTGTTATTGTCGAGTAAACAAATTTTCCTAATCTTTCTGTTCAAGCGCCATCTAC	6.63
GATGATTGTTCTCCCAGCTGATGAATTGGTGTCCTCGAGTAAACAAATTTTCCTAATCTTTCTGTTCAAGCGCCATCTAC	1.3
GATGATTGTTCTCCCAGCTGATGAATTTAATGTCTCGAGTAAACAAATTTTCCTAATCTTTCTGTTCAAGCGCCATCTAC	3.07
GATGATTGTTCTCCCAGCTGATGAATTATGCTAGTCGAGTAAACAAATTTTCCTAATCTTTCTGTTCAAGCGCCATCTAC	2.02
GATGATTGTTCTCCCAGCTGATGAATTAGAGTATTCGAGTAAACAAATTTTCCTAATCTTTCTGTTCAAGCGCCATCTAC	1.12
GATGATTGTTCTCCCAGCTGATGAATTTGTCTTTTCGAGTAAACAAATTTTCCTAATCTTTCTGTTCAAGCGCCATCTAC	3.26
GATGATTGTTCTCCCAGCTGATGAATTCGACCTTTCGAGTAAACAAATTTTCCTAATCTTTCTGTTCAAGCGCCATCTAC	0.397
GATGATTGTTCTCCCAGCTGATGAATTCGTTCCATCGAGTAAACAAATTTTCCTAATCTTTCTGTTCAAGCGCCATCTAC	0.366
GATGATTGTTCTCCCAGCTGATGAATTAGATACATCGAGTAAACAAATTTTCCTAATCTTTCTGTTCAAGCGCCATCTAC	0.882
GATGATTGTTCTCCCAGCTGATGAATTCCTAAAATCGAGTAAACAAATTTTCCTAATCTTTCTGTTCAAGCGCCATCTAC	0.198
